Reference: the BET-seq Pho4 binding data (Le et al. 2018)
Some of the results follow. Values were computed here from the reads of four pooled replicates and scatter widely.

Target: T1, Pho4 (S. cerevisiae) (UniProt P07270)
T1 sequence: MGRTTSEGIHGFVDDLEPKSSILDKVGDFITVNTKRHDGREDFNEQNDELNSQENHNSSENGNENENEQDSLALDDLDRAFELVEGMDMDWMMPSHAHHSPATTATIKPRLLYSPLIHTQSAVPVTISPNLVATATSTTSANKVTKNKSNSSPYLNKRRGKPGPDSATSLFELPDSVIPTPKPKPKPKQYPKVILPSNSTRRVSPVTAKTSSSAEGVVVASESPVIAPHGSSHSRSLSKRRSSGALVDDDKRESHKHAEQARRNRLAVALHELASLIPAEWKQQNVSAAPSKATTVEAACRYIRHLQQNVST
Experiment: relative binding free energy (BET-seq); higher = weaker binding
Details: reference: library average

Sequence | relative binding free energy [kcal/mol]
TGTGTCACGTGAAGCA | 0.28
TCGTTCACGTGAGTTA | 0.36
TCTGTCACGTGGTGAT | 0.09
GCAATCACGTGGTGTT | 0.13
TAAGTCACGTGCGGTG | 0.07
TATTTCACGTGGCGTG | 0.23
TGTAGCACGTGGACGG | -0.04
GGTTGCACGTGGGAAT | 0.04
CGAGGCACGTGGTGGC | -0.2
TCGTTCACGTGGGTGG | 0.11
GGAGGCACGTGTGACG | -0.09
TGATTCACGTGAGGGT | 0.48
TGCAGCACGTGTTATT | -0.1
GGGTACACGTGATTTG | 0.17
CGTTTCACGTGGTAAA | 0.24
AGGTGCACGTGGTGTA | -0.03
ATGGTCACGTGGATGG | 0.15
TGATTCACGTGCTGGG | 0.31
GTCATCACGTGGTGAT | 0.19
GGTTTCACGTGGGGTA | 0.22
AATTTCACGTGGTTAA | 0.26
GTATTCACGTGTGCAT | 0.09
TTGGACACGTGTACTG | 0.02

Sequence | relative binding free energy [kcal/mol]
GTTGTCACGTGGGCGC | -0.01
ATTAACACGTGGTTCG | -0.04
AGTTACACGTGGCGGA | -0.02
ATAATCACGTGTTTTG | 0.07
TAAAGCACGTGGTAGG | -0.22
CGCGGCACGTGAGTTT | 0.22
GGCGTCACGTGGATAT | 0.15
GTGGGCACGTGGCGGC | -0.29
GCGTGCACGTGGCAGG | -0.16
GGGGGCACGTGTGTAT | -0.05
GGGCACACGTGGTTTT | 0.12
TGCTGCACGTGGGACG | -0.1
CTCGTCACGTGTCGTT | 0.12
TATTTCACGTGTTAAT | 0.33
GGAGGCACGTGGGCTA | -0.24
TGTATCACGTGTAATG | 0.07
GTGAACACGTGCTGGG | 0.04
TCTCGCACGTGGTGTA | -0.19
TGCTTCACGTGGAGAG | 0.21
ATTGGCACGTGTTACT | -0.19
ATATTCACGTGTGGGC | 0.24
ATTAGCACGTGTTTTG | -0.17
TAAGACACGTGGTTGT | 0.01

Sequence | relative binding free energy [kcal/mol]
ATATTCACGTGCATGG | 0.29
GGGGGCACGTGGGGGG | -0.08
TATGGCACGTGAGCCG | 0.12
TGTGTCACGTGTATTG | 0.14
GGTGGCACGTGTAATG | 0.12
TAATGCACGTGGAGGC | -0.04
GTATGCACGTGTCGTG | -0.06
TTTTACACGTGAGTTA | 0.33
AGGATCACGTGGAGCG | 0.35
CGTTCCACGTGGTATG | 0.12
GGCACCACGTGAGGTT | 0.34
GAGCTCACGTGGGATG | 0.28
ATGATCACGTGGTGGC | 0.09
GGTAGCACGTGCGGCG | -0.01
AAGTTCACGTGCGTTA | 0.25
ATTGACACGTGTAGGG | 0.18
TGTTGCACGTGTCATC | 0.08
GGCTGCACGTGGTCAG | -0.09
GTAGACACGTGGGGGC | 0.03
ACGTTCACGTGGAGGG | 0.14
CTATGCACGTGGGTTT | -0.15
TGTTGCACGTGAAGCT | 0.2
GGGTGCACGTGCGGAT | -0.01

Sequence | relative binding free energy [kcal/mol]
AGAGGCACGTGATTCT | 0.04
AGGGGCACGTGGGCGT | -0.27
TACTGCACGTGAGTTT | 0.18
TGTGGCACGTGAGGGG | 0.18
TCGGGCACGTGTTTTT | -0.05
ATGTTCACGTGTGATC | 0.22
TGTTACACGTGGACAT | 0.2
ATAGACACGTGTGGGT | -0.03
CATGTCACGTGGTCGT | -0.06
TGATACACGTGTGCTG | 0.03
CGTTTCACGTGGCGTG | 0.11
GGTAGCACGTGGTGTC | -0.04
GAGTGCACGTGTGATT | 0.15
GCTCGCACGTGGGGTT | -0.25
TCTTGCACGTGAGGGG | 0.15
GAGGACACGTGGTGGG | 0.15
GTTAGCACGTGTTGGG | -0.01
TAGCACACGTGCGGGT | 0.05
AAATACACGTGTGTTA | 0.1
AATGTCACGTGATTGC | 0.27
CGGTTCACGTGAGGTA | 0.44
TTTAGCACGTGATTGC | 0.15
TGTTACACGTGGATTC | 0.15

Sequence | relative binding free energy [kcal/mol]
GAAGACACGTGGGTGG | -0.25
ATAGGCACGTGTACGT | -0.07
GATGCCACGTGCTGGG | 0.04
GAGAGCACGTGGAGTT | 0.02
ATGGTCACGTGGCATG | -0.01
TAAGTCACGTGTGATT | 0.14
AGTGACACGTGCAGTT | -0.08
TAGTGCACGTGAGCAG | 0.07
GGTGCCACGTGGAGAT | 0.07
TTGGTCACGTGGCGTT | 0.02
AATAGCACGTGGAGTT | -0.16
GGTAGCACGTGCGATG | -0.01
AAATACACGTGGTGGG | 0.13
CTTCTCACGTGGTTTT | 0.18
GTGTCCACGTGTTGGG | 0.09
AGTTACACGTGTTGCG | 0.22
TATTCCACGTGGAGTT | 0.02
ATACACACGTGGTGTT | -0.18
TTTGTCACGTGGAATT | 0.21
GGTAGCACGTGTAAGT | 0.06
CTCTACACGTGGGGTG | -0.13
GTTTTCACGTGGATAT | 0.24
CTCTTCACGTGATTGT | 0.39
